The values below come from publication PMC4336329 (PLoS ONE, 2015).

Out of some 310,000 compounds screened, about 14,000 (4.5%) showed an effect of 50% or more. The effect is printed as a negative number. The list shows a part of the results.
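Note: peak tail current of the secondary pulse compared with the same well before compound.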

Sequence of human ether-à-go-go-related gene (hERG) potassium channel (Q12809 whole entry, looked up): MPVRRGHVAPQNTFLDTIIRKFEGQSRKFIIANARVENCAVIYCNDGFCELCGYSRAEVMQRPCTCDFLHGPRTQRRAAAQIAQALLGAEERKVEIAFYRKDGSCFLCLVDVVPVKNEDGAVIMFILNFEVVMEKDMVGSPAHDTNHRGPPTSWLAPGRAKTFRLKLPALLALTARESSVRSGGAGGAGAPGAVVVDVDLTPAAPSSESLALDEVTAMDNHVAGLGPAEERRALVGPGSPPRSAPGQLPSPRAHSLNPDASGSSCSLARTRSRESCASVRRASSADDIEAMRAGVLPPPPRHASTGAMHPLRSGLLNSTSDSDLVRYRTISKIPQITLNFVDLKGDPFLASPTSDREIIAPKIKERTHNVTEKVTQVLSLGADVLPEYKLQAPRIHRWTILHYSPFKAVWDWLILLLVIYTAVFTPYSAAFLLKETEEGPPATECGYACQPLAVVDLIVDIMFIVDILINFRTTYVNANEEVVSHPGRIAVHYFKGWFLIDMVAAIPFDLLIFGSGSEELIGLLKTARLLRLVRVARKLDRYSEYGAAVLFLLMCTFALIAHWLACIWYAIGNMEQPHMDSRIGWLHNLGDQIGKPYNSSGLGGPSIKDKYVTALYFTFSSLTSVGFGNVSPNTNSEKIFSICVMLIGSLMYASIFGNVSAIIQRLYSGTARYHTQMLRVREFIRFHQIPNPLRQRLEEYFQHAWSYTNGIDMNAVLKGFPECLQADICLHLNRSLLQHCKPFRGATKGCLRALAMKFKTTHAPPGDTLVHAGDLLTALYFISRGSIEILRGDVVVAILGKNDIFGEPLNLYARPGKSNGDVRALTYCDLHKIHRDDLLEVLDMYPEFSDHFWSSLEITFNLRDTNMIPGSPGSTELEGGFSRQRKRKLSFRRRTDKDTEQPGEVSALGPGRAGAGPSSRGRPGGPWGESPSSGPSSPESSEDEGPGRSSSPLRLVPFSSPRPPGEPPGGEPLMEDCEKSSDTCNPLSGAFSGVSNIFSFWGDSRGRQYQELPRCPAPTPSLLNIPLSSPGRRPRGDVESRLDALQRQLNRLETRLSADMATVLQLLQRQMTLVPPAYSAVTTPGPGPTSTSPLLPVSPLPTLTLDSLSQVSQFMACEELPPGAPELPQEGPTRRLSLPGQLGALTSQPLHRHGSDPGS

The test addresses human ether-à-go-go-related gene (hERG) potassium channel (human, UniProt Q12809). Description: primary screen, population patch clamp on CHO cells stably expressing hERG.
`Cc1oc(-c2ccccc2Cl)nc1CSCC(=O)NC1CCCC1`: the “hERG current change (%, negative = inhibition) at 10uM” value was -25.1%. Regarding `CC(C)Cn1cnc2c1c(=O)n(CC(=O)N(C)C)c(=O)n2Cc1ccccc1`, the “hERG current change (%, negative = inhibition) at 10uM” value was found to be 8.95%. For `Cc1cc(C)c([N+](=O)[O-])cc1NC(=O)CCSc1ccccc1Cl` the value was 6.59%; for `CCc1ccc(-c2csc(NC(=O)COC(=O)CCc3nc4ccccc4s3)n2)cc1`, 6.31%; for `CC1(NC(=O)Cn2cc(C(F)(F)F)ccc2=O)CCS(=O)(=O)C1` (stereo not drawn), -5.69%. The same measure for `CC1CCCCN1Cc1cnc(Cl)s1` (stereo not drawn): 0.546%; for `Cc1nc(-c2cccc(NC(=O)c3ccc(Br)o3)c2)cs1`: -31.3%; for `Cc1onc(-c2ccccc2Cl)c1C(=O)N1CCN(c2ccccc2)CC1`: -6.55%. For `Cc1cccc(-c2noc(CNS(=O)(=O)c3ccccc3)n2)c1` the value was 5.25%; for `COc1cc(OC)cc(C(=O)NCCN2C(=O)S/C(=C\c3cccs3)C2=O)c1`, -0.617%; for `CCCCc1c(C)[nH]c(C(=O)OCC)c1C`, 8.51%. In the case of `Cn1cc(CCCC(=O)NCc2ccc(F)cc2)c2ccccc21`, the “hERG current change (%, negative = inhibition) at 10uM” value is reported as -10.4%.

With `O=C(NC1CCN(C(=S)Nc2ccc(Cl)cc2)CC1)C1CCCCC1`, the “hERG current change (%, negative = inhibition) at 10uM” value turned out to be 17.5%. For `CN(C)C(=O)COc1ccc(C(=O)/C=C/c2cccnc2)cc1`, the “hERG current change (%, negative = inhibition) at 10uM” value stood at 18.1%. With `Cc1c(C)n2c(SCC(=O)N3CCCCC3)nnc2[nH]c1=O`, the “hERG current change (%, negative = inhibition) at 10uM” value worked out at 9.92%. For `COC(=O)CNC(=O)c1ccc(=O)oc1` the value was 16.1%; for `COc1cc(OC)cc(-c2cc3nc4c(c(N5CCN(c6ncccn6)CC5)n3n2)CCCC4)c1`, 4.89%. As to `O=[N+]([O-])c1ccc(-c2cn3c(n2)CCC3)cc1`, the “hERG current change (%, negative = inhibition) at 10uM” value is on record as -17.5%.

Turning to `O=C1NC2(CCCCC2)C(=O)N1Cc1cc(=O)n2ccsc2n1`, the “hERG current change (%, negative = inhibition) at 10uM” value came out at 17.1%. For `O=C(O)c1ccc(CSc2ncnc3c2cnn3Cc2ccccc2)cc1` the value was 2.67%; for `COc1ccccc1OCc1csc(NC(=O)c2ccco2)n1`, -21.7%; for `Cc1nc(=O)c(-c2ccccc2)c(C)n1CCCO`, 6.73%. For `COc1ccc(CNC(=O)Cn2c(=O)oc3ccccc32)cc1OC` the value was -25.1%; for `Cc1cc(C)n2nc(CNS(=O)(=O)c3ccc(F)c(C)c3)nc2n1`, -1.63%; for `COc1ccc(CCNS(=O)(=O)c2ccc(OC)c(OC)c2)cc1OC`, 1.32%. The same measure for `COc1ccc(S(=O)(=O)N2CCOC2CNC(=O)C(=O)NCCCN(C)C)cc1C` (stereo not drawn): -10.3%; for `Cc1ccc(C2=NC3(CCCC3)NC2=S)cc1`: 7.59%; for `CC(C)C(Nc1ccc(C(F)(F)F)cc1[N+](=O)[O-])C(=O)O` (stereo not drawn): 27.5%. As for `C=CCNC(=O)C1CC1(c1ccc(C)cc1)c1ccc(C)cc1` (stereo not drawn), the “hERG current change (%, negative = inhibition) at 10uM” value is -21.6%.

In the case of `CCN1CCN(Cc2ccc(NC(=O)c3cc(NC(=O)c4ccc5n[nH]nc5c4)cc(OC)c3)cc2C(F)(F)F)CC1`, the “hERG current change (%, negative = inhibition) at 10uM” value was found to be 21.1%. Consider `CSCCC(NC(=O)c1cc([N+](=O)[O-])cc([N+](=O)[O-])c1)c1nc2ccccc2[nH]1` (stereo not drawn), for which the “hERG current change (%, negative = inhibition) at 10uM” value was -35%.

As to `Cc1ccc(/C=N/N2C(=O)C3C(C2=O)C2C=CC3C23CC3)o1` (stereo not drawn), the “hERG current change (%, negative = inhibition) at 10uM” value was -2.72%. `O=C(NCc1ccccn1)c1cc(S(=O)(=O)N2CCCCC2)ccc1Cl`: the “hERG current change (%, negative = inhibition) at 10uM” value was determined as 3.78%. In the case of `CC(Oc1ccccc1)C(=O)Nc1ccccc1F` (stereo not drawn), the “hERG current change (%, negative = inhibition) at 10uM” value is -14.1%. For `CN(C)CCNC(C(=O)Nc1cc(Cl)cc(Cl)c1)c1ccccc1` (stereo not drawn) the value was -45.6%. For `O=C(N/C(=C/c1ccco1)C(=O)N1CCCCCC1)c1cccs1`, the “hERG current change (%, negative = inhibition) at 10uM” value is reported as -18.3%.

With `O=C1CCCN1CCCNC(=S)Nc1ccc(Br)cc1Cl`, the “hERG current change (%, negative = inhibition) at 10uM” value is recorded as -2.97%.

For the compound `O=C(CN1CCN(S(=O)(=O)c2cccc(F)c2)CC1)Nc1ccnn1C1CCCC1`, the “hERG current change (%, negative = inhibition) at 10uM” value is -13.6%. The same measure for `CN(C)C(=O)CN(C)S(=O)(=O)c1ccc(Cl)cc1`: -3.59%; for `COc1ccc(NC(=O)N2CCN(S(C)(=O)=O)CC2)c(OC)c1`: 6.39%. With `CCC(=O)NC(=S)Nc1ccc(NC(=O)c2ccc(Br)o2)cc1`, the “hERG current change (%, negative = inhibition) at 10uM” value came to 3.82%. Consider `c1ccc(C(c2nnnn2C2CCCC2)N2CCN(c3nc4ccccc4s3)CC2)cc1` (stereo not drawn), for which the “hERG current change (%, negative = inhibition) at 10uM” value is given as -3.46%.

Consider `O=C(CN1CCN(S(=O)(=O)c2ccc(Br)cc2)CC1)N/N=C/c1ccncc1`, for which the “hERG current change (%, negative = inhibition) at 10uM” value was -70.6%. As for `CCCOC(=O)Nc1cc(OC)c(Cl)cc1OC`, the “hERG current change (%, negative = inhibition) at 10uM” value is on record as -6.7%. The same measure for `Cc1ccc(C2=NOC3(CC(=O)N(c4ccc(C)cc4)C3=O)C2)cc1` (stereo not drawn): 21.4%; for `COc1ccccc1C(=O)C1CCCN(Cc2ccc3c(c2)OCCO3)C1` (stereo not drawn): -40.5%. The same measure for `O=C(Nc1ccccn1)c1cccc(S(=O)(=O)N2CCCc3ccccc32)c1`: -16.8%. For `Cc1cccnc1NC(=O)CSc1nnc(Cc2ccccc2)o1` the value was 1.66%; for `CCN(CC)S(=O)(=O)c1ccc2oc(C(=O)NCc3ccc(C)cc3)c(C)c2c1`, -13.9%.

Turning to `CSc1ccc(/C=C(\NC(=O)c2ccccc2)C(=O)NCCN2CCOCC2)cc1`, the “hERG current change (%, negative = inhibition) at 10uM” value is -63.7%. For `CCCCc1c(O)n2c(nc3ccccc32)[nH]c1=O` the value was 13.8%; for `CCOC(=O)CNc1nc(Cl)nc(Nc2ccc(Cl)cc2)n1`, 15%; for `CCOC(=O)/C(C(N)=NC(C)C)=C(\O)c1ccccc1`, -1.58%. The same measure for `CCn1c(CSc2nc3ccccc3s2)nnc1SCC(=O)c1ccc(Cl)cc1`: 6.76%; for `Cc1ccn(CC(=O)N2CCCC(N3CCN(c4cccc(Cl)c4)CC3)C2)n1` (stereo not drawn): -33.6%; for `COC(=O)[C@@H](Cc1ccc(O)cc1)NC(=O)[C@H]1CCC(=O)N1C(=O)OCc1ccccc1`: -8.27%.

As for `C=CCN(c1cccc(C(F)(F)F)c1)S(=O)(=O)c1cccc(C(=O)OCC(=O)NCCC)c1`, the “hERG current change (%, negative = inhibition) at 10uM” value is given as -39.2%. The same measure for `CC(=O)Nc1ccccc1Sc1ccc2c3c(cccc13)C(=O)N(c1ccc(C)cc1)C2=O`: 2.01%; for `CC1CCCCN1CCCNC(=O)c1cc(Br)c(Br)[nH]1` (stereo not drawn): -64.9%. On to `CO/N=C/C(C#N)=C/c1ccc(OC)cc1`, for which the “hERG current change (%, negative = inhibition) at 10uM” value is reported as 20.6%.

In the case of `Cc1cc(OCC(=O)N(Cc2ccco2)C2CCS(=O)(=O)C2)cc(C)c1Cl` (stereo not drawn), the “hERG current change (%, negative = inhibition) at 10uM” value is recorded as -43.6%.

For `CCCCNC(=O)Cn1cnc2sc(C)c(S(=O)(=O)N3CCN(c4ccccc4OC)CC3)c2c1=O`, the “hERG current change (%, negative = inhibition) at 10uM” value is 11.4%. The same measure for `O=C(c1ccccc1F)N(Cc1ccc2c(c1)OCO2)Cc1cc2cc3c(cc2n2nnnc12)OCO3`: -13%; for `O=C(Nc1ccccc1C(=O)N1CCNCC1)c1ccco1`: 4.65%. The same measure for `Cc1nc(N2CCN(c3ccccn3)CC2)c2c(C)c(C(=O)Nc3c(F)cc(F)cc3Br)sc2n1`: -14.4%. The same measure for `Cc1nn(Cc2ccccc2)c2c1C(c1ccco1)C(C#N)=C(N)O2` (stereo not drawn): 8.66%; for `O=C1CCC(C(=O)N2CCOCC2)CN1Cc1cccc(C(F)(F)F)c1` (stereo not drawn): -3.9%; for `CN(Cc1c(C(=O)N2CCc3ccccc3C2)nc2ccc(Cl)cn12)C(C1CC1)C1CC1`: -45.9%. As to `COc1ccc(CNC(=O)C2(CC3CC(c4ccccc4)=NO3)CCN(C(=O)Cc3ccc(F)cc3)CC2)cc1` (stereo not drawn), the “hERG current change (%, negative = inhibition) at 10uM” value is recorded as 18.1%. The same measure for `CN1CCCN(S(=O)(=O)c2ccccc2)CC1.Cl`: -0.989%; for `Cn1cccc1/C=C1\CCc2ccccc2C1=O`: 11.8%. As for `CC1CN(c2ccccc2)CCN1C(=O)c1cc(COc2c(F)cccc2F)on1` (stereo not drawn), the “hERG current change (%, negative = inhibition) at 10uM” value is -1.15%.

As for `COc1ccc(NC(=O)c2ccc(NCC3CCCO3)c([N+](=O)[O-])c2)cc1` (stereo not drawn), the “hERG current change (%, negative = inhibition) at 10uM” value is recorded as -5.12%. In the case of `Cc1cccc(C(=O)N[C@H](C(=O)OCc2cc(=O)n3c(n2)sc2ccccc23)C(C)C)c1`, the “hERG current change (%, negative = inhibition) at 10uM” value is -21.7%. For `COc1ccccc1NS(=O)(=O)c1cc(NC(=O)c2sccc2C)ccc1N1CCCC1` the value was 14.9%. On to `O=S(=O)(c1ccc2ccccc2c1)n1cccn1`, for which the “hERG current change (%, negative = inhibition) at 10uM” value worked out at 14.1%.

For `Cc1ccsc1CNn1cnnc1SCc1ccc(Cl)cc1`, the “hERG current change (%, negative = inhibition) at 10uM” value is on record as 13%.

As for `O=C(COc1ccc2ccccc2c1)N1CCN(C(=O)c2cccs2)CC1`, the “hERG current change (%, negative = inhibition) at 10uM” value was -50%. Turning to `COc1cccc(NC(=O)CN(C)CC(=O)NCc2ccco2)c1`, the “hERG current change (%, negative = inhibition) at 10uM” value amounted to 2.65%.

With `CCN1CCCC1CNC(=O)c1ccc(Sc2ccc(F)cc2)c([N+](=O)[O-])c1` (stereo not drawn), the “hERG current change (%, negative = inhibition) at 10uM” value is -66.5%. As to `CC(C)(C)OC(=O)N1CCC[C@H]1c1nnc(SCc2cccc(Cl)c2)o1`, the “hERG current change (%, negative = inhibition) at 10uM” value is recorded as -15.1%. As to `COc1ccc(COc2cc(-c3cccc(OC)c3)nc3ccc(NC(=O)c4ccc(OC)cc4)cc23)cc1`, the “hERG current change (%, negative = inhibition) at 10uM” value came to 10.9%. In the case of `CCc1c(C)c2c(C)nn(-c3ccccc3)c2[nH]c1=O`, the “hERG current change (%, negative = inhibition) at 10uM” value is reported as 1.37%. The same measure for `CCOc1cc(C(=O)N(C)CC(=O)Nc2cccc3ccccc23)ccc1OC`: 5.74%; for `COc1ccccc1S(=O)(=O)CC(O)COc1ccccc1Cl` (stereo not drawn): 11.8%; for `COC(=O)c1c(NC(=O)c2ccco2)sc(C)c1C`: 18.1%.

Turning to `Cc1cc(NC(=O)CSc2nc3c(sc4ccccc43)c(=O)n2CCc2ccccc2)n[nH]1`, the “hERG current change (%, negative = inhibition) at 10uM” value is on record as -19.6%.
